In patent US5221665A, “N-substituted amides” (Boehringer Ingelheim Pharmaceuticals, Inc., priority 1991, dated 1993):

How the values were obtained:
[1] = target: T1, human neutrophil elastase (HNE) (Homo sapiens, UniProt P08246); experiment: Elastase Inhibition--Animal Model (acute hamster hemorrhage model, HNE instilled i.t.); type: in vivo, Syrian Golden Hamsters; settings: compound 20 ug i.t. three to five minutes before 50 μg HNE i.t., lung lavage hemorrhage at 18 hours
T1 construct: purified preparations of human neutrophil elastase (HNE); purchased Elastin Products Co., Pacific, MO
T1 sequence (P08246 30-247 limits assumed): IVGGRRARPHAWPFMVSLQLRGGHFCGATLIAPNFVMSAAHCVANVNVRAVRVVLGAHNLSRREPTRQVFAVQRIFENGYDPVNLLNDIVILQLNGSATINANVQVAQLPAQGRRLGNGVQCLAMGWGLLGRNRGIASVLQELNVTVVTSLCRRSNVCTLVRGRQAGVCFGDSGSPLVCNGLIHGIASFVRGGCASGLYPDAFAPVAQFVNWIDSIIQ
Experimental: When instilled into the lungs of hamsters, purified preparations of human neutrophil elastase (HNE) will produce an emphysema like state. Acute challenge (18 hours) with 50 μg of HNE results in pulmonary hemorrhage which can be readily quantitated by measuring total RBC's (red blood count) and hemogloblin concentration of lung lavage samples.
HNE (obtained from Elastin Products Co., Pacific, MO) was diluted to 250 μg/mL in 0.9% sterile saline. Syrian Golden Hamsters, males, weighing approximately 90-130 grams, were obtained from Charles River Laboratories. The experiments described below are conducted using at least three animals per group.
Anesthesia required for the intratracheal administration of compounds and elastase was induced by the i.p. injection of Ketamine hydrochloride, 10 mg/100 gram body weight plus Xylazine, 1 mg/100 gram body weight.
Hamsters were anesthetized as described above and the trachea were surgically exposed. Test compounds were administered via 27g needle inserted directly into the trachea in 0.1 mL volume followed by 0.1 mL saline push. […]
Samples were concentrated by centrifugation (1500 rpm, 10 minutes) and brought up to 1.0 mL in saline. Homoglobin concentration was determined spectrophotometrically (540 nm) by the cyanmethemoglobin method using 200 μL sample to 2.5 mL cranmethoglobin reagent (Data Medical Associates, Arlington, Tx.).

[2] = target: T2, Human sputum elastase (HSE) / Human Leukocyte Elastase (HLE) (Homo sapiens, UniProt P08246); experiment: Elastase Inhibition--In Vitro Method (hydrolysis of MeO-Suc-Ala-Ala-Pro-Val-pNA, microtiter format); type: biochemical; settings: for % inhib. (5 ug/mL) 0% HSA / % inhib. (5 ug/mL) 0.5% HSA: 5 ug/mL compound; for % inhib. (5 ug/mL) 0.5% HSA: 0.5% HSA added
T2 construct: Human sputum elastase (HSE ) (Elasten Products Co., Pacific, Mo.); purchased Elasten Products Co., Pacific, Mo; host or cells: human sputum
T2 sequence (P08246 30-267): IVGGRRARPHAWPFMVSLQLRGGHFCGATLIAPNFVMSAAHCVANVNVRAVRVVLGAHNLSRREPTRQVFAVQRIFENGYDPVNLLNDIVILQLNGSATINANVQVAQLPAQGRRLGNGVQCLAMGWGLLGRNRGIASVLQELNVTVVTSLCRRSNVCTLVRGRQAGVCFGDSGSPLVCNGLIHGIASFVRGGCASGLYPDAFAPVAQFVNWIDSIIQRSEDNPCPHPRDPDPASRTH

Row | % inhib. (20 ug, i.t.) [1] [%] | % inhib. (5 ug/mL) 0% HSA [2] [%] | % inhib. (5 ug/mL) 0.5% HSA [2] [%] | IC50 ([2]; Table I, 0.5 mM substrate, 15 minutes pre-incubation) | SMILES
1 | 99.0 | 99.8 | 99.7 | – | CC(C)C(NC(=O)CN(C(=O)[C@@H](NC(=O)c1ccc(C(=O)NS(=O)(=O)c2ccc(Cl)cc2)cc1)C(C)C)C1CCCC1)C(=O)C(F)(F)F (single isomer, unassigned) [Cyclopentyl; p-[p-Cl(C6 H4)SO2 NHCO](C6 H4)CO; Diastereomer ] [(4-(4-Chlorophenyl)sulfonylaminocarbonylphenyl-1-oxomethyl]-L-Valyl-N-cyclopentyl-glycyl-N-[3-(1,1,1-trifluoro-4-methyl-2-oxypentyl) 1amide]
2 | 99.2 | 100 | 99.8 | 0.066 µg/mL and 0.081 µg/mL | CC(C)C(NC(=O)CN(C(=O)[C@@H](NC(=O)c1ccc(C(=O)NS(=O)(=O)c2ccc(Cl)cc2)cc1)C(C)C)C1CCCC1)C(=O)C(F)(F)F (stereo partly drawn) [Cyclopentyl; p-[p-Cl(C6 H4)SO2 NHCO](C6 H4)CO] [(4-(4-Chlorophenyl)sulfonylaminocarbonylphenyl-1-oxomethyl]-L-Valyl-N-cyclopentyl-glycyl-N-[3-(1,1,1-trifluoro-4-methyl-2-oxypentyl) 1amide]

“And” between values parts separate entries of the source, which are not always exact repeats. Equal values may be shown once.
